Laboratory results reported in PubChem BioAssay AID1508624 (National Center for Advancing Translational Sciences (NCATS), 2021).
In all, about 48,000 compounds went through this assay and about 120 (0.25%) were called active. Inconclusive results (about 4%) are left out. The call rests on the fitted dose curve; in most records, active means well fitted activation curve with a large enough effect; inconclusive means small, poorly fitted or top-dose-only effect, or another doubt; inactive means no such curve, though single readings can be large or run the other way. Some of the results follow.

experiment: Primary qHTS for Identification of Small Molecule Activators of Huntingtin-Antisense Promoter Activity; conditions: HEK293 HTT-AS promoter firefly luciferase reporter (activity 0% = vehicle and -100% = no light), 24 h; series mostly up to 57.5 µM; activity change, positive = activation: at the top concentration; further: nearly all actives have a fitted effect of over 55% in size
Method in brief: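 Quantitative HTS used concentration series of up to 57.5 uM final on HEK293 luciferase reporter cells, 24 h at 37 degrees C. Readout was Dual-Glo firefly luminescence.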

Activity change, positive = activation, inactive:
CCCCN(CC)CCNC(=O)c1c(C)oc2ncnc(N3CCOCC3)c12 -1.56%
CCOC(=O)c1ccccc1NC(=O)C1CCN(c2ncnc3c2nc2n3CCCCC2)CC1 -13.6%
CCC(=O)N1CCc2cc(S(=O)(=O)NC(C(=O)NCCc3ccccc3)C(C)C)ccc21 (centres undefined) 0.867%
Cc1cc(C)c(NC(=O)C(C)n2c(=O)c(C(F)(F)F)nc3ccccc32)c(C)c1 (centres undefined) -5.1%
Cc1cc(C)cc(OCC(=O)Nc2nc3c(s2)CC(C(C)(C)C)CC3)c1 (centres undefined) -16.3%
Cc1cccc(-n2ncc(C(=O)N3CCN(C4CCCCC4)CC3)c2C2CCN(C(=O)OC(C)(C)C)CC2)c1 -7.77%
COc1ccc(OC)c2sc(NC(=O)c3ccc(S(=O)(=O)N4CCCC4)cc3)nc12 -29.8%
COc1cccc(CNC(=O)Cn2c(=O)ccc3cc(S(=O)(=O)N4CCC(C)CC4)ccc32)c1 -18.9%
COc1ccc(-n2c3c(c(=O)[nH]c2=O)C(NC(=O)c2ccccc2Cl)(C(F)(F)F)C(=O)N3)cc1 (centres undefined) -13.9%
COc1cccc(C(=O)NCc2ccc3c(c2)CCN3C(=O)c2ccncc2)c1 7.5%
COc1ccccc1-c1nc(SCC(=O)c2ccccc2)n[nH]1 14%
COc1ccc(-c2[nH]c(-c3cccc(OC)c3)nc2SCC(=O)Nc2ccc3c(c2)OCO3)cc1 -18.8%
COc1ccc(CNc2nc(SCc3ccc(Cl)cc3)nc3ccccc23)cc1 -2.25%
CCN(c1cccc(C)c1)S(=O)(=O)c1ccc(N2CCCCS2(=O)=O)cc1 -28.8%
COc1ccc(NC(=O)c2ccc(-c3nc(CSc4ccc(C)cc4)c(C)o3)cc2)cc1Cl -7.99%
Cc1ccc(NC(=O)c2cc(S(=O)(=O)N(C)C3CCCCC3)ccc2F)cc1C -24.1%
COc1ccccc1C(=O)Oc1c(Sc2ccccc2)c(C)nn1C(C)(C)C 0%
CCCCCN1C(C(=O)c2ccccc2)=C(NC(=O)c2ccc(OC)cc2)c2ccccc2S1(=O)=O -16.5%
CCc1ccc(C(=O)c2cn(CC(=O)Nc3cccc(OC)c3)c3ccc(OC)cc3c2=O)cc1 -20.5%
COc1ccccc1N1CCN(c2ncnc3c2cnn3-c2cc(Cl)ccc2C)CC1 -22.9%
COc1ccc(OCC(=O)NCc2ccc3c(c2)CCN3C(=O)c2ccccc2)cc1 -21.5%
O=C(c1cc2ccccc2oc1=O)N1CCN(c2ccc(Cl)cc2)CC1 -17.8%
O=C(NCCc1ccccc1)c1cnc2sc(N3CCCCCC3)nn2c1=O 6.75%
Cc1cc2oc(C(=O)Nc3ccc(S(N)(=O)=O)cc3)cc(=O)c2cc1C -9.57%
Cc1ccc(C(=O)N2c3ccc(C)cc3C(C)(c3ccccc3)CC2(C)C)cc1 (centres undefined) -39.3%
C[C@]12CC[C@H](O)CC1=CCC1C2CC[C@]2(C)C(n3cnc4ccccc43)=CCC12 (some centres undefined) -5.29%
CCc1cccc(NC(=O)CN2C(=O)COc3ccc(S(=O)(=O)Nc4ccccc4)cc32)c1 -34.9%
Cc1ccc(CSc2nc3ccc(NC(=O)COc4ccccc4)cc3s2)cc1 -8.86%
CCOC(=O)c1ccc(N2C(=O)c3[nH]nc(-c4ccc(C)cc4)c3C2c2cccc(F)c2)cc1 (centres undefined) -58.8%
CC(NC(=O)c1ccc2c(c1)CCN2S(C)(=O)=O)c1ccccc1 (centres undefined) -13.3%
Cc1c(Cl)cccc1NC(=O)c1cccc(NC(=O)N2CCSc3ncccc32)c1 -16.8%
Cc1ccc(CNC(=O)c2ccc3c(c2)nc(C)n3-c2cccc(F)c2)cc1 -5.7%
CCOc1ccc(NC(=O)CSC2=Nc3ccccc3C3=NC(CCC(=O)NCc4ccccc4)C(=O)N23)cc1 (centres undefined) 0%
Cc1cc(C(F)(F)F)n2nc(-c3ccc(Br)cc3)cc2n1 -1.87%
CCCCOc1ccc(-c2nn(-c3ccccc3)cc2C2NC(=O)NC(C)=C2C(=O)OCC)cc1 (centres undefined) -13.1%
Cc1cccc(NC(=O)CSc2cn(CC(=O)N3CCCCCC3)c3ccccc23)c1 -16.6%
Cc1cc(OC(C)C(=O)Nc2c(C(=O)c3ccc(F)cc3)oc3ccccc23)ccc1Cl (centres undefined) -6.02%
CCc1ccc(Sc2cc(C(=O)NCc3ccccc3OC)c3ccccc3n2)cc1 -35.7%
COC(=O)c1ccc(OCC2c3cc(OC)c(OC)cc3CCN2C(=O)Cc2ccc(OC)cc2)cc1 (centres undefined) -23.3%
CCOc1ccc(N2CC(NC(=O)C(=O)c3c[nH]c4ccccc34)CC2=O)cc1 (centres undefined) -22.4%
CCn1c(=O)cc(SCC(=O)NCc2ccc(F)cc2Cl)c2ccccc21 -10.1%
CCc1ccc(Sc2cc(C(=O)NCc3cccc(OC)c3)c3ccccc3n2)cc1 -44.3%
Cn1nc(C(=O)NCc2ccc(Cl)cc2)c2c1-c1ccccc1S(=O)(=O)C2 -29.8%
Cc1ccc(OCc2nc(-c3ccc(C(=O)N4CCN(c5ccccc5F)CC4)cc3)oc2C)cc1 3.45%
O=C1OC(C(=O)Nc2cccc(Br)c2)Cc2ccccc21 (centres undefined) 5.95%
COc1ccc(CNC(=O)Cn2c(SCC(=O)Nc3ccc(OC)cc3)nc3ccccc32)cc1 5.39%
Cc1cccc(-n2ncc(C(=O)N3CCN(c4ccc(Cl)cc4)CC3)c2C2CCN(C(=O)OC(C)(C)C)CC2)c1 -6.74%
CCc1ccc2nc(N(CCN(CC)CC)C(=O)c3ccco3)sc2c1 17.8%
Cc1ccc(NC(=O)c2ccc(-c3cccc(Cl)c3C)o2)cc1 11%
COc1ccc(OC)c(CNC(=O)c2cc3c(-c4ccc(OC)c(OC)c4)nn(C)c3s2)c1 1.78%
CN(C)S(=O)(=O)N(CC(=O)NCCSCc1ccccc1)c1ccccc1 -7.67%
CCCCCn1c(=O)[nH]c2cc(C(=O)Nc3cc(C)cc(C)c3)ccc2c1=O -6.55%
Cc1cccc(N2C(=O)N(CC(=O)C(C)(C)C)c3ccccc3S2(=O)=O)c1C -34.2%
COc1ccc(Cl)cc1NC(=O)c1cc(S(=O)(=O)NC2CCCCCC2)ccc1F -25.7%
Cc1ccc(C)c(NC(=O)CN2CCCN(Cc3cccc(Cl)c3)S2(=O)=O)c1 -21.3%
CCc1nnc(SCc2cc(C)ccc2C)c2cc3sc(C)cc3n12 -21.7%
COc1ccc(NC(=O)C(C)n2nc(-c3ccc(C)c(C)c3)ccc2=O)cc1OC (centres undefined) -19.6%
CCOC(=O)c1c(C)[nH]c(C)c1S(=O)(=O)N1CCC(C(=O)N2CCN(c3ccccc3F)CC2)CC1 0%
COc1cccc(NC(=O)CSC2=Nc3ccccc3C3=NC(CC(=O)NC4CCCCC4)C(=O)N23)c1 (centres undefined) -9.7%
